From PMC5320654
No constants are given. Whether binding was seen depends on the method and setting. In cells and extracts the contact can be indirect. Some binding calls cover weakened binding; strength is not graded here. For some assays here: Tags and fused reporters may be left off the sequences shown. Values belong to the substance of their own block, whether it stands above or below them.

Amino acid sequences for entries named in this document (tags omitted).
UniProt O15379: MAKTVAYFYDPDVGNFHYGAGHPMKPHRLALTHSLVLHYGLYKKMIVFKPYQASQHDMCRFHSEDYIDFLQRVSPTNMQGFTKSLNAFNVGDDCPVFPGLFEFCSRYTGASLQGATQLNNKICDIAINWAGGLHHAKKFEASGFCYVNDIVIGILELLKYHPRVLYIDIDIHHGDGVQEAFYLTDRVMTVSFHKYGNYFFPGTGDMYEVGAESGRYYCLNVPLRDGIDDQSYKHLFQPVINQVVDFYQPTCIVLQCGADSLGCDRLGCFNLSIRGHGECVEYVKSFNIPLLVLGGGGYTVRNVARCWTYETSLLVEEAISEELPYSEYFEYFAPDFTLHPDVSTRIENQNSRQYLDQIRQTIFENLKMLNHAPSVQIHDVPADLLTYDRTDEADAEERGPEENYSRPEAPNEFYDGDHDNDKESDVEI
UniProt Q13547: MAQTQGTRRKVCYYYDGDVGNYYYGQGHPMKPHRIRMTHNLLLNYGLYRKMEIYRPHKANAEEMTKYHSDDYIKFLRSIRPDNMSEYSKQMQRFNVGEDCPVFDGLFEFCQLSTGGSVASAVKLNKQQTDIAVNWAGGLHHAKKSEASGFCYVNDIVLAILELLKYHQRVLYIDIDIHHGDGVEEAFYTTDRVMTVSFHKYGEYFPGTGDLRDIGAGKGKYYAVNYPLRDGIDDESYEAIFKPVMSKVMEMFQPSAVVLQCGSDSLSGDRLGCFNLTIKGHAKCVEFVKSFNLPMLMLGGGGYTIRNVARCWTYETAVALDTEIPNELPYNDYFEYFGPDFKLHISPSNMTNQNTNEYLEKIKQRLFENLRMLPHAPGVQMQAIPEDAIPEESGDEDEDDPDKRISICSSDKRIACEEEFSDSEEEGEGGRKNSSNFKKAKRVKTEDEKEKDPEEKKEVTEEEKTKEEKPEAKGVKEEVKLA
UniProt P05627: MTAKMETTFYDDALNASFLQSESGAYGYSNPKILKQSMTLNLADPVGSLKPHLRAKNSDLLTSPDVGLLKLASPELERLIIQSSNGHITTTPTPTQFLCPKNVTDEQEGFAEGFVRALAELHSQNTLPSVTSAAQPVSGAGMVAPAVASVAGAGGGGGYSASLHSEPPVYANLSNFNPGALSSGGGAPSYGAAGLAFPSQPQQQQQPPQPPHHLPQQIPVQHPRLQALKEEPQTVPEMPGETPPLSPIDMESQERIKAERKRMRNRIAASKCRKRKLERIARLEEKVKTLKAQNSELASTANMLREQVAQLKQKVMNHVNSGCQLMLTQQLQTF
UniProt O75376: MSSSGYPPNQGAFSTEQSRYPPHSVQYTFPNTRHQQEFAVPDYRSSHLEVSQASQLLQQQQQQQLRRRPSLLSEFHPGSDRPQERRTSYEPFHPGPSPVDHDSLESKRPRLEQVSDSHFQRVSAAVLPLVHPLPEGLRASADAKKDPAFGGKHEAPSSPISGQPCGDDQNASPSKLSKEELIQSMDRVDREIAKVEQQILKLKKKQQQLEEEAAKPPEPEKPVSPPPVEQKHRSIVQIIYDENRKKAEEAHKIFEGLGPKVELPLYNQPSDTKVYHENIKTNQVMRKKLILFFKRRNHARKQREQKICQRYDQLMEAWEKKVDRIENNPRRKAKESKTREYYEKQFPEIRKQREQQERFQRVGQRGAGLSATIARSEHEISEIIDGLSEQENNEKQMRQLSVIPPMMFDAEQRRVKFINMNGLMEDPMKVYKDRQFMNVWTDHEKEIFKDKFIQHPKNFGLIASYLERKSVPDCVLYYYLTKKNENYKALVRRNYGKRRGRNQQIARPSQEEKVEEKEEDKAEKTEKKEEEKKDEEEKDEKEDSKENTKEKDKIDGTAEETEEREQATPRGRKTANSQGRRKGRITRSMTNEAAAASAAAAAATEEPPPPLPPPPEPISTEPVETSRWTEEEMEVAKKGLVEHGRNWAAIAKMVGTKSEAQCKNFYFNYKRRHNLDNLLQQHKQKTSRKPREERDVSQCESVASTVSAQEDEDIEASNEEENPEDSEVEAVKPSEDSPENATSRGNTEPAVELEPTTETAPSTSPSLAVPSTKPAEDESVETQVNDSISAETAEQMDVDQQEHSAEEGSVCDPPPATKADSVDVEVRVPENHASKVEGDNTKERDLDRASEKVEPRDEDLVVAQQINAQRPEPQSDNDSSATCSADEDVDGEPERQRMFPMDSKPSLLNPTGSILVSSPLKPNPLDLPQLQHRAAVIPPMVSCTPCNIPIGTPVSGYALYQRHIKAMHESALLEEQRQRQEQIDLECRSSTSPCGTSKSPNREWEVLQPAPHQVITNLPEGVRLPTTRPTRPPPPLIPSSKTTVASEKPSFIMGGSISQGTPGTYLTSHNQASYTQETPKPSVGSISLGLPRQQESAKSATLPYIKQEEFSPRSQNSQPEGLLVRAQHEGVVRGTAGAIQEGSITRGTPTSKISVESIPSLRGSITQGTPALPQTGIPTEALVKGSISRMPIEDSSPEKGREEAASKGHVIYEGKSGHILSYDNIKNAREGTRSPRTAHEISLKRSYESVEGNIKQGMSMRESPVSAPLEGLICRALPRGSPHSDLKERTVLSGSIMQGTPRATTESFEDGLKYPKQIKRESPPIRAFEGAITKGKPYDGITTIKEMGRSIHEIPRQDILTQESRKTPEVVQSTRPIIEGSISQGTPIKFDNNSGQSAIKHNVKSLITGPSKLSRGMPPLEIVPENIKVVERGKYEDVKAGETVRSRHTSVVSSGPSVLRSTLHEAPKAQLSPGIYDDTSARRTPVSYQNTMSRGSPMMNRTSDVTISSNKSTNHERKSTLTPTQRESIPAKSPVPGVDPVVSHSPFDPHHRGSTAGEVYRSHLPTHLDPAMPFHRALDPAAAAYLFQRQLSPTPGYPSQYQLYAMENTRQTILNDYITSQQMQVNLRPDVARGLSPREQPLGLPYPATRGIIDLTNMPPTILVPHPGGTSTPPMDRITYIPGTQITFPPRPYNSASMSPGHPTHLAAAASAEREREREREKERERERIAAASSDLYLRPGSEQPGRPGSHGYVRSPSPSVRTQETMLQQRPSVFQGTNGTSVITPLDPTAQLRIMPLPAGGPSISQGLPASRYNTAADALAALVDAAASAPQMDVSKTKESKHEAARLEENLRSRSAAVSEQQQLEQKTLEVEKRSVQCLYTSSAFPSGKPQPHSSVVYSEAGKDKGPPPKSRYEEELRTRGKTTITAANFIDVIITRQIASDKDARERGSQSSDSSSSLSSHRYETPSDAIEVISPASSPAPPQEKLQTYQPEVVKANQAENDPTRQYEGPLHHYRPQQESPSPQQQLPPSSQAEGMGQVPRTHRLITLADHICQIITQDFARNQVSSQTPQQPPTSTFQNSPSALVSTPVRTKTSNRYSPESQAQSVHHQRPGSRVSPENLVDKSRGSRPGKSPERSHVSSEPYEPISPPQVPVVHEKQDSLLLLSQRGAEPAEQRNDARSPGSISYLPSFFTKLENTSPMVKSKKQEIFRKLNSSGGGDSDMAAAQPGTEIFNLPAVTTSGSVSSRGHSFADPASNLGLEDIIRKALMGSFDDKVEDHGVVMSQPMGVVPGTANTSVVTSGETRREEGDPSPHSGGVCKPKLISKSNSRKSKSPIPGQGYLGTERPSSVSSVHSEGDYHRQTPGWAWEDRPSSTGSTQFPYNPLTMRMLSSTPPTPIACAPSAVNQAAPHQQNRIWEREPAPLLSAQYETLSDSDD
UniProt P35222: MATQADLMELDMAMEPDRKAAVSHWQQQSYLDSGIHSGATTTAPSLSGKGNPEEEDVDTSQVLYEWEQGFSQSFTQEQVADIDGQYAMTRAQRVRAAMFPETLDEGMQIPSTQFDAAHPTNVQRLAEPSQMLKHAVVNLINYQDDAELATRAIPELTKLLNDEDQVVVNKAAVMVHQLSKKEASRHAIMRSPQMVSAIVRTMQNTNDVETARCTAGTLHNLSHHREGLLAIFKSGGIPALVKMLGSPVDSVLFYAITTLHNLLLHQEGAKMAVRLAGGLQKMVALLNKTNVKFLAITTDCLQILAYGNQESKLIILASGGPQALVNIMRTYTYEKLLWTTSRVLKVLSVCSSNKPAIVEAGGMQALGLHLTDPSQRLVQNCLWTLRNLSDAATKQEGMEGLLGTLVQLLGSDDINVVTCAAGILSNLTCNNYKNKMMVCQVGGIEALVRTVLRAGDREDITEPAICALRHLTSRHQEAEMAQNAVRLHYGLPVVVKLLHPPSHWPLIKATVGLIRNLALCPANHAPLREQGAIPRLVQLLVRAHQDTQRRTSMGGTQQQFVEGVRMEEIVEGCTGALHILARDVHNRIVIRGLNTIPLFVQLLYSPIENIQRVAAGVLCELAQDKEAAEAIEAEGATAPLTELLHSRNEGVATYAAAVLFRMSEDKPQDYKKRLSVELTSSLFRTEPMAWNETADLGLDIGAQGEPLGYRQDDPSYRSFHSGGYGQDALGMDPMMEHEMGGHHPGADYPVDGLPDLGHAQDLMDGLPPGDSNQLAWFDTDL
UniProt P05412: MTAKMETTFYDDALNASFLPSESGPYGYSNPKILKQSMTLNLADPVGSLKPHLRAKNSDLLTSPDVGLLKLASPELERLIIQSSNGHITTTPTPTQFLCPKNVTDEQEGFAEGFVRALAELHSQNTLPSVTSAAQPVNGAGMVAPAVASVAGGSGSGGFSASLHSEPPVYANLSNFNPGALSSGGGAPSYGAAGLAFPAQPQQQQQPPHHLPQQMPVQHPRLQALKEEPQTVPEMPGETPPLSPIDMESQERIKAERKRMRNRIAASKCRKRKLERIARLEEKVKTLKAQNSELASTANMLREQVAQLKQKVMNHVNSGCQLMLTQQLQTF

Experiments:
FLAG-tagged HDAC3 = FLAG-tagged HDAC3 (UniProt O15379); assay: co-IP; both partners transfected into HEK293 (one FLAG-tagged, one Myc-tagged), lysed after 48 h, anti-FLAG agarose beads 4 h at 4 °C, 4 washes with 150 mM NaCl and 0.5% Triton X-100, blot; in Fig. 5b cells also UV-treated to activate JNK
FLAG-tagged HDAC1 = FLAG-tagged HDAC1 (UniProt Q13547); assay: as above
FLAG-WDR13 [1] = molecular target: FLAG-WDR13 (UniProt Q91V09); assay: as above
FLAG-WDR13 [2] = molecular target: FLAG-WDR13 (UniProt Q91V09); assay: co-IP; FLAG-WDR13 or its FLAG-tagged deletion constructs over-expressed in HEK293, immunocomplex purified with anti-FLAG agarose beads, blots for the partner proteins of the cells (endogenous in Fig. 6a)
[3] = molecular target: WDR13 (endogenous, mouse embryonic fibroblasts) (mouse (endogenous in MEFs)) (UniProt Q91V09); assay: co-IP; endogenous proteins from MEF lysate (50 mM Tris.HCl, 150 mM NaCl, 1 mM EDTA, 1% Triton X-100), pre-cleaned with Protein A, 4 μg anti-WDR13 antibody; Wdr13 knockout MEFs as control
[4] = molecular target: T1, FLAG-tagged WDR13 deletion construct FL-293 (UniProt Q91V09); assay: co-IP; FLAG-WDR13 or its FLAG-tagged deletion constructs over-expressed in HEK293, immunocomplex purified with anti-FLAG agarose beads, blots for the partner proteins of the cells (endogenous in Fig. 6a)
T1 sequence: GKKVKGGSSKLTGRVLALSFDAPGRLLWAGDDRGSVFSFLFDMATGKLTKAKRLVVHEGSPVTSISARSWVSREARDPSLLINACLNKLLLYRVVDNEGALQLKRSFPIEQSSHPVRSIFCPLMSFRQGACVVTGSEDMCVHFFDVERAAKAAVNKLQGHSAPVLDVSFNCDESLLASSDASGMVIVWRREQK

[5] = molecular target: T2, FLAG-tagged WDR13 deletion construct FL-193 (UniProt Q91V09); assay: as above
T2 sequence: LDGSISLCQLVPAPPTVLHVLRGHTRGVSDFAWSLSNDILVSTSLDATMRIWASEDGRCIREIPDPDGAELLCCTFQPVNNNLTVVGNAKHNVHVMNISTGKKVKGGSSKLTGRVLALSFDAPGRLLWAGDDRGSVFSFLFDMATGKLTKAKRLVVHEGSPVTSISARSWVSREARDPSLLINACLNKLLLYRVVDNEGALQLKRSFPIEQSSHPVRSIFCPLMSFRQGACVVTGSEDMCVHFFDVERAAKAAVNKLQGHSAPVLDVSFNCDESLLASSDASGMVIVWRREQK

[6] = molecular target: T3, FLAG-tagged WDR13 deletion construct FL-93 (UniProt Q91V09); assay: as above
T3 sequence: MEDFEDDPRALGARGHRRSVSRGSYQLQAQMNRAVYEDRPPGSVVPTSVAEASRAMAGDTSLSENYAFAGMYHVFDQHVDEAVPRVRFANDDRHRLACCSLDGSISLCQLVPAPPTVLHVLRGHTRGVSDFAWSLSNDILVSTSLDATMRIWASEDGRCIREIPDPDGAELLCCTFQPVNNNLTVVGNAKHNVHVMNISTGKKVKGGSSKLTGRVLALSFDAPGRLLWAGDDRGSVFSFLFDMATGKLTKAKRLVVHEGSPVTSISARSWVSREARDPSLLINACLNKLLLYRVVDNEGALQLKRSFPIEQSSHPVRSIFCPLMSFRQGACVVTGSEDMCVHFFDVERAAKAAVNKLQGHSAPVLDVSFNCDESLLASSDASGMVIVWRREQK

[7] = molecular target: T4, FLAG-tagged WDR13 deletion construct FL-393 (UniProt Q91V09); assay: as above
T4 sequence: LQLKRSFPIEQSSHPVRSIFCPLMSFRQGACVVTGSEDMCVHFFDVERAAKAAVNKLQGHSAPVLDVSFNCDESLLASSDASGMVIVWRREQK

Substance: Myc-c-Jun (from UniProt P05627 1-334)
- binding (FLAG-WDR13 [1]): binds

Substance: NCoR1 (endogenous, HEK293) (from UniProt O75376 1-2440)
- binding (FLAG-WDR13 [2]): binds

Substance: β-catenin (from UniProt P35222 1-781)
- binding [4]: no binding
- binding [5]: no binding
- binding [6]: no binding
- binding (FLAG-WDR13 [2]): no binding
- binding [7]: no binding

The next lines start with the values.

- binding (FLAG-tagged HDAC3): binds
- binding (FLAG-tagged HDAC1): binds
Substance: Myc-WDR13 (from UniProt Q91V09 1-485)

- binding (FLAG-WDR13 [2]): binds
Substance: c-Jun (endogenous, HEK293) (from UniProt P05412 1-331)

- binding [3]: binds
Substance: c-Jun (endogenous, mouse embryonic fibroblasts) (from UniProt P05627 1-334)
